{"source": "the supplement of paper PMC12217912", "parents": {"B1": {"name": "TEV protease; numbered along this chain (parent)", "chain": "MGESLFKGPRDYNPISSSICHLTNESDGHTTSLYGIGFGPFIITNKHLFRRNNGTLVVQSLHGVFKVKDTTTLQQHLVDGRDMIIIRMPKDFPPFPQKLKFREPQREERICLVTTNFQTKSMSSMVSDTSCTFPSGDGIFWKHWIQTKDGQCGSPLVSTRDGFIVGIHSASNFTNTNNYFTSVPKNFMELLTNQEAQQWVSGWRLNADSVLWGGHKVFMVKPEEPFQPVKEATQL"}}, "variants_of": "B1", "experiment": "raw area under fraction-flipped curve 0-4 h after induction (AUC4h, not background-subtracted), DNA-recorder readout of cleavage of the substrate (dimensionless); higher = more cleavage of the substrate by the protease variant", "settings": "temperature: 34 °C; time window: 0-4 h after rhamnose induction", "description": "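In vivo DNA recorder in E. coli TOP10(DE3) ΔrhaA at 34 °C. Each TEVp single-site mutant (parent TEVp 0) is paired with a single-site variant of the 7-mer TEVs (canonical ENLYFQ|S). The substrate sits between flexible linkers in a Bxb1-sfGFP-TEVs-SsrA fusion, so cleavage stabilises Bxb1 and speeds flipping of a recombination array, read by NGS. The value is the raw area under the fraction-flipped curve over 0-4 h after rhamnose induction (AUC4h), with ≥20 reads per time point. It is not background-subtracted; inactive controls average about 0.047.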", "note": "The other results are listed elsewhere or left out. The full chains were built here from the parent and the listed change. Values near 0.05 are background.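 Also: Bxb1 expression induced with 0.2% (w/v) L-rhamnose at OD600 near 0.5, cultures sampled hourly, flipped fraction per protease–substrate barcode pair counted by paired-end Illumina sequencing.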"}
{"variant": "MGESLFKGPRDYNPISSSICHLTNESDGHTTSLYGIGFGPFIITNKHLFRRNNGTLVVQSLHGVFKVKDTTTLQQHLVDGRDMIIIRMPKDFPPFPQKLKFREPQREERICLVTTNFQTKSMSSMVSDTSCTFPSGDGIFWKHWIQTKDGQCGSPLVSTRDGFIVGIHSASNFTNTNNYFTSVPPNFMELLTNQEAQQWVSGWRLNADSVLWGGHKVFMVKPEEPFQPVKEATQL", "note": "[K185P]", "values": [{"measurement": "area with substrate CNLYFQS", "value": 0.0789}, {"measurement": "area with substrate FNLYFQS", "value": 0.0691}, {"measurement": "area with substrate LNLYFQS", "value": 0.0675}, {"measurement": "area with substrate MNLYFQS", "value": 0.0723}, {"measurement": "area with substrate PNLYFQS", "value": 0.0683}, {"measurement": "area with substrate SNLYFQS", "value": 0.0698}, {"measurement": "area with substrate WNLYFQS", "value": 0.0515}, {"measurement": "area with substrate YNLYFQS", "value": 0.0623}]}
{"variant": "MGESLFKGPRDYNPISSSICHLTNESDGHTTSLYGIGFGPFIITNKHLFRRNNGTLVVQSLHGVFKVKDTTTLQQHLVDGRDMIIIRMPKDFPPFPQKLKFREPQREERICLVTTNFQTKSMSSMVSDTSCTFPSGDGIFWKHWIQTKDGQCGSPLVSTRDGFIVGIHSASNFTNTNNYFTSVPKNFCELLTNQEAQQWVSGWRLNADSVLWGGHKVFMVKPEEPFQPVKEATQL", "note": "[M188C]", "values": [{"measurement": "area with substrate CNLYFQS", "value": 0.118}, {"measurement": "area with substrate DNLYFQS", "value": 0.0722}, {"measurement": "area with substrate HNLYFQS", "value": 0.07}, {"measurement": "area with substrate INLYFQS", "value": 0.0697}, {"measurement": "area with substrate LNLYFQS", "value": 0.0802}, {"measurement": "area with substrate NNLYFQS", "value": 0.0728}, {"measurement": "area with substrate PNLYFQS", "value": 0.0563}, {"measurement": "area with substrate WNLYFQS", "value": 0.0564}]}
{"variant": "MGESLFKGPRDYNPISSSICHLTNESDGHTTSLYGIGFGPFIITNKHLFRRNNGTLVVQSLHGVFKVKDTTTLQQHLVDGRDMIIIRMPKDFPPFPQKLKFREPQREERICLVTTNFQTKSMSSMVSDTSCTFPSGDGIFWKHWIQTKDGQCGSPLVSTRDGFIVGIHSASNFTNTNNYFTSVPKNFLELLTNQEAQQWVSGWRLNADSVLWGGHKVFMVKPEEPFQPVKEATQL", "note": "[M188L]", "values": [{"measurement": "area with substrate CNLYFQS", "value": 0.0789}, {"measurement": "area with substrate FNLYFQS", "value": 0.0745}, {"measurement": "area with substrate GNLYFQS", "value": 0.0717}, {"measurement": "area with substrate HNLYFQS", "value": 0.0564}, {"measurement": "area with substrate KNLYFQS", "value": 0.0584}, {"measurement": "area with substrate MNLYFQS", "value": 0.0687}, {"measurement": "area with substrate PNLYFQS", "value": 0.06}, {"measurement": "area with substrate SNLYFQS", "value": 0.0504}, {"measurement": "area with substrate TNLYFQS", "value": 0.0601}, {"measurement": "area with substrate WNLYFQS", "value": 0.0571}]}
{"variant": "MGESLFKGPRDYNPISSSICHLTNESDGHTTSLYGIGFGPFIITNKHLFRRNNGTLVVQSLHGVFKVKDTTTLQQHLVDGRDMIIIRMPKDFPPFPQKLKFREPQREERICLVTTNFQTKSMSSMVSDTSCTFPSGDGIFWKHWIQTKDGQCGSPLVSTRDGFIVGIHSASNFTNTNNYFTSVPKNFTELLTNQEAQQWVSGWRLNADSVLWGGHKVFMVKPEEPFQPVKEATQL", "note": "[M188T]", "values": [{"measurement": "area with substrate CNLYFQS", "value": 0.0654}, {"measurement": "area with substrate GNLYFQS", "value": 0.0734}, {"measurement": "area with substrate HNLYFQS", "value": 0.063}, {"measurement": "area with substrate INLYFQS", "value": 0.0739}, {"measurement": "area with substrate LNLYFQS", "value": 0.0657}, {"measurement": "area with substrate MNLYFQS", "value": 0.0817}, {"measurement": "area with substrate NNLYFQS", "value": 0.0784}, {"measurement": "area with substrate PNLYFQS", "value": 0.0733}, {"measurement": "area with substrate QNLYFQS", "value": 0.0643}, {"measurement": "area with substrate SNLYFQS", "value": 0.0612}, {"measurement": "area with substrate TNLYFQS", "value": 0.0714}, {"measurement": "area with substrate VNLYFQS", "value": 0.0431}]}
{"variant": "MGESLFKGPRDYNPISSSICHLTNESDGHTTSLYGIGFGPFIITNKHLFRRNNGTLVVQSLHGVFKVKDTTTLQQHLVDGRDMIIIRMPKDFPPFPQKLKFREPQREERICLVTTNFQTKSMSSMVSDTSCTFPSGDGIFWKHWIQTKDGQCGSPLVSTRDGFIVGIHSASNFTNTNNYFTSVPKNFMDLLTNQEAQQWVSGWRLNADSVLWGGHKVFMVKPEEPFQPVKEATQL", "note": "[E189D]", "values": [{"measurement": "area with substrate CNLYFQS", "value": 0.061}, {"measurement": "area with substrate FNLYFQS", "value": 0.105}, {"measurement": "area with substrate GNLYFQS", "value": 0.0792}, {"measurement": "area with substrate HNLYFQS", "value": 0.0743}, {"measurement": "area with substrate INLYFQS", "value": 0.0624}, {"measurement": "area with substrate MNLYFQS", "value": 0.0644}, {"measurement": "area with substrate TNLYFQS", "value": 0.068}, {"measurement": "area with substrate VNLYFQS", "value": 0.0743}, {"measurement": "area with substrate WNLYFQS", "value": 0.0578}, {"measurement": "area with substrate YNLYFQS", "value": 0.0599}]}
{"variant": "MGESLFKGPRDYNPISSSICHLTNESDGHTTSLYGIGFGPFIITNKHLFRRNNGTLVVQSLHGVFKVKDTTTLQQHLVDGRDMIIIRMPKDFPPFPQKLKFREPQREERICLVTTNFQTKSMSSMVSDTSCTFPSGDGIFWKHWIQTKDGQCGSPLVSTRDGFIVGIHSASNFTNTNNYFTSVPKNFMILLTNQEAQQWVSGWRLNADSVLWGGHKVFMVKPEEPFQPVKEATQL", "note": "[E189I]", "values": [{"measurement": "area with substrate CNLYFQS", "value": 0.074}, {"measurement": "area with substrate GNLYFQS", "value": 0.0601}, {"measurement": "area with substrate HNLYFQS", "value": 0.0515}, {"measurement": "area with substrate INLYFQS", "value": 0.0691}, {"measurement": "area with substrate KNLYFQS", "value": 0.0642}, {"measurement": "area with substrate MNLYFQS", "value": 0.0595}, {"measurement": "area with substrate NNLYFQS", "value": 0.0724}, {"measurement": "area with substrate PNLYFQS", "value": 0.0682}, {"measurement": "area with substrate SNLYFQS", "value": 0.0687}, {"measurement": "area with substrate WNLYFQS", "value": 0.0615}, {"measurement": "area with substrate YNLYFQS", "value": 0.0558}]}
{"variant": "MGESLFKGPRDYNPISSSICHLTNESDGHTTSLYGIGFGPFIITNKHLFRRNNGTLVVQSLHGVFKVKDTTTLQQHLVDGRDMIIIRMPKDFPPFPQKLKFREPQREERICLVTTNFQTKSMSSMVSDTSCTFPSGDGIFWKHWIQTKDGQCGSPLVSTRDGFIVGIHSASNFTNTNNYFTSVPKNFMVLLTNQEAQQWVSGWRLNADSVLWGGHKVFMVKPEEPFQPVKEATQL", "note": "[E189V]", "values": [{"measurement": "area with substrate CNLYFQS", "value": 0.0833}, {"measurement": "area with substrate FNLYFQS", "value": 0.0533}, {"measurement": "area with substrate GNLYFQS", "value": 0.0531}, {"measurement": "area with substrate HNLYFQS", "value": 0.088}, {"measurement": "area with substrate INLYFQS", "value": 0.0656}, {"measurement": "area with substrate LNLYFQS", "value": 0.0754}, {"measurement": "area with substrate MNLYFQS", "value": 0.0555}, {"measurement": "area with substrate NNLYFQS", "value": 0.062}, {"measurement": "area with substrate TNLYFQS", "value": 0.0963}, {"measurement": "area with substrate VNLYFQS", "value": 0.0596}]}
{"variant": "MGESLFKGPRDYNPISSSICHLTNESDGHTTSLYGIGFGPFIITNKHLFRRNNGTLVVQSLHGVFKVKDTTTLQQHLVDGRDMIIIRMPKDFPPFPQKLKFREPQREERICLVTTNFQTKSMSSMVSDTSCTFPSGDGIFWKHWIQTKDGQCGSPLVSTRDGFIVGIHSASNFTNTNNYFTSVPKNFMELITNQEAQQWVSGWRLNADSVLWGGHKVFMVKPEEPFQPVKEATQL", "note": "[L191I]", "values": [{"measurement": "area with substrate CNLYFQS", "value": 0.0738}, {"measurement": "area with substrate HNLYFQS", "value": 0.0574}, {"measurement": "area with substrate INLYFQS", "value": 0.0336}, {"measurement": "area with substrate MNLYFQS", "value": 0.0656}, {"measurement": "area with substrate PNLYFQS", "value": 0.0627}, {"measurement": "area with substrate WNLYFQS", "value": 0.0656}]}
{"variant": "MGESLFKGPRDYNPISSSICHLTNESDGHTTSLYGIGFGPFIITNKHLFRRNNGTLVVQSLHGVFKVKDTTTLQQHLVDGRDMIIIRMPKDFPPFPQKLKFREPQREERICLVTTNFQTKSMSSMVSDTSCTFPSGDGIFWKHWIQTKDGQCGSPLVSTRDGFIVGIHSASNFTNTNNYFTSVPKNFMELTTNQEAQQWVSGWRLNADSVLWGGHKVFMVKPEEPFQPVKEATQL", "note": "[L191T]", "values": [{"measurement": "area with substrate CNLYFQS", "value": 0.0516}, {"measurement": "area with substrate DNLYFQS", "value": 0.0287}, {"measurement": "area with substrate FNLYFQS", "value": 0.0457}, {"measurement": "area with substrate HNLYFQS", "value": 0.0598}, {"measurement": "area with substrate INLYFQS", "value": 0.048}, {"measurement": "area with substrate KNLYFQS", "value": 0.0754}, {"measurement": "area with substrate LNLYFQS", "value": 0.0532}, {"measurement": "area with substrate MNLYFQS", "value": 0.0666}, {"measurement": "area with substrate NNLYFQS", "value": 0.0409}, {"measurement": "area with substrate PNLYFQS", "value": 0.0631}, {"measurement": "area with substrate RNLYFQS", "value": 0.0081}, {"measurement": "area with substrate SNLYFQS", "value": 0.0523}, {"measurement": "area with substrate TNLYFQS", "value": 0.0559}, {"measurement": "area with substrate WNLYFQS", "value": 0.0435}, {"measurement": "area with substrate YNLYFQS", "value": 0.0535}]}
{"variant": "MGESLFKGPRDYNPISSSICHLTNESDGHTTSLYGIGFGPFIITNKHLFRRNNGTLVVQSLHGVFKVKDTTTLQQHLVDGRDMIIIRMPKDFPPFPQKLKFREPQREERICLVTTNFQTKSMSSMVSDTSCTFPSGDGIFWKHWIQTKDGQCGSPLVSTRDGFIVGIHSASNFTNTNNYFTSVPKNFMELLDNQEAQQWVSGWRLNADSVLWGGHKVFMVKPEEPFQPVKEATQL", "note": "[T192D]", "values": [{"measurement": "area with substrate CNLYFQS", "value": 0.0678}, {"measurement": "area with substrate FNLYFQS", "value": 0.0587}, {"measurement": "area with substrate INLYFQS", "value": 0.073}, {"measurement": "area with substrate KNLYFQS", "value": 0.0629}, {"measurement": "area with substrate LNLYFQS", "value": 0.0647}, {"measurement": "area with substrate MNLYFQS", "value": 0.0703}, {"measurement": "area with substrate NNLYFQS", "value": 0.0385}, {"measurement": "area with substrate PNLYFQS", "value": 0.0794}, {"measurement": "area with substrate SNLYFQS", "value": 0.0823}, {"measurement": "area with substrate WNLYFQS", "value": 0.0655}, {"measurement": "area with substrate YNLYFQS", "value": 0.0573}]}
